IC50 data for 19 molecules are collected here from US8129380B2, “Phthalazinone derivatives” (AstraZeneca AB, priority 2008, dated 2012).

In the test the target is Mammalian PARP, isolated from Hela cell nuclear extract (Homo sapiens, UniProt P09874). Description: PARP inhibitory action (FlashPlate 3H-NAD assay). The test is classed as biochemical. The note with it: 30° C., NAD 5 μM. On the procedure:
In order to assess the inhibitory action of the compounds, the following assay was used to determine IC50 values.
The total assay volume per well was 40 μl.
After 10 minutes incubation at 30° C. the reactions were initiated by the addition of a 10 μl reaction mixture, containing NAD (5 μM), ^3H-NAD and 30 mer double stranded DNA-oligos. Designated positive and negative reaction wells were done in combination with compound wells (unknowns) in order to calculate % enzyme activities. The plates were then shaken for 2 minutes and incubated at 30° C. for 45 minutes.
Following the incubation, the reactions were quenched by the addition of 50 μl 30% acetic acid to each well. The plates were then shaken for 1 hour at room temperature.
The plates were transferred to a TopCount NXT (TRADE MARK) (Packard, UK) for scintillation counting. Values recorded are counts per minute (cpm) following a 30 second counting of each well.
The % enzyme activity for each compound is then calculated using the following equation: […]
IC50 values (the concentration at which 50% of the enzyme activity is inhibited) were calculated, which are determined over a range of different concentrations, normally from 10 μM down to 0.001 μM. Such IC50 values are used as comparative values to identify increased compound potencies.

UniProt P09874, sequence (P09874 whole entry): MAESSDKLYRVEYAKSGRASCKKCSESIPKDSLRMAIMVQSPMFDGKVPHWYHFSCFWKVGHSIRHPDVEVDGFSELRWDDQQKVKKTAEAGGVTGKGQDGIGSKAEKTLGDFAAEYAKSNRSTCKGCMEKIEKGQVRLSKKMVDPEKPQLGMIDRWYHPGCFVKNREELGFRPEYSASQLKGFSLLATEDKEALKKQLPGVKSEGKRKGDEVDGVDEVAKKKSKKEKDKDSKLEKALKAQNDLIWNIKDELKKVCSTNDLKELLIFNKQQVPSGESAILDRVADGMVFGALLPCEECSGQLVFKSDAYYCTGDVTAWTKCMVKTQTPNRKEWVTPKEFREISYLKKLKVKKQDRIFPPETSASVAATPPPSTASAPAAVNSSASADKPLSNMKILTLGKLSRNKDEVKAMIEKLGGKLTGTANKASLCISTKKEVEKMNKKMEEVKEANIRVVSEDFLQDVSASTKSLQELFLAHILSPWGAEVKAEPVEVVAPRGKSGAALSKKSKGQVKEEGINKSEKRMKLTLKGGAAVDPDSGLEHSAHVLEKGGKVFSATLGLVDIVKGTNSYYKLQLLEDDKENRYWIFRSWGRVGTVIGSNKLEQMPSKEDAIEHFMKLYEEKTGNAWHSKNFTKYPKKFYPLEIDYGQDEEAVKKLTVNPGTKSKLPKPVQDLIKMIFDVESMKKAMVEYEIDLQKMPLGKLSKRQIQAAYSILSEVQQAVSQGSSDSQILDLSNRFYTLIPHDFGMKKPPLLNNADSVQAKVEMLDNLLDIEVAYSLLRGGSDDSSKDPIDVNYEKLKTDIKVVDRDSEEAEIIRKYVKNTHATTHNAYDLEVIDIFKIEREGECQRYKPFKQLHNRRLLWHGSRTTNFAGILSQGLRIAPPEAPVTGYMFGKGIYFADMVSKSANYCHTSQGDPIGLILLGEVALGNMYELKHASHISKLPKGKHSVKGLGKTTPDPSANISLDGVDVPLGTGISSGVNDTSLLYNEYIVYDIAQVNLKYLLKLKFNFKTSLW

By IC50 is commonly meant the point on the concentration scale where inhibition reaches its midpoint. Turning to `CN(C)C(=O)COC1CCN(C(=O)c2cc(Cc3n[nH]c(=O)c4ccccc34)ccc2F)CC1` [Compound 83, 2-(1-(2-fluoro-5-((4-oxo-3,4-dihydrophthalazin-1-yl)methyl)benzoyl)piperidin-4-yloxy)-N,N-dimethylacetamide], the IC50 stood at 14 nM.

Regarding `CN(C)CCOC1CCN(C(=O)c2cc(Cc3n[nH]c(=O)c4ccccc34)ccc2F)CC1` [Compound 86, 4-(3-(4-(2-(dimethylamino)ethoxy)piperidine-1-carbonyl)-4-fluorobenzyl)phthalazin-1(2H)-one], the IC50 turned out to be 18 nM.

`O=C(COC1CCN(C(=O)c2cc(Cc3n[nH]c(=O)c4ccccc34)ccc2F)CC1)N1CC(F)(F)C1` [Compound 89, 4-(3-(4-(2-(3,3-difluoroazetidin-1-yl)-2-oxoethoxy)piperidine-1-carbonyl)-4-fluorobenzyl)phthalazin-1(2H)-one]: the IC50 came to 7 nM.

In the case of `O=C(O)COC1CCN(C(=O)c2cc(Cc3n[nH]c(=O)c4ccccc34)ccc2F)CC1` [Compound 90, 2-(1-(2-fluoro-5-((4-oxo-3,4-dihydrophthalazin-1-yl)methyl)benzoyl)piperidin-4-yloxy)acetic acid], the 50% inhibitory concentration (IC50) amounted to 9 nM.

As to `COC[C@H](C)OC1CCN(C(=O)c2cc(Cc3n[nH]c(=O)c4ccccc34)ccc2F)CC1` [Compound 93, (S)-4-(4-fluoro-3-(4-(1-methoxypropan-2-yloxy)piperidine-1-carbonyl)benzyl)phthalazin-1(2H)-one], the IC50 is 8 nM.

As for `COC1CCN(C(=O)c2cc(Cc3n[nH]c(=O)c4ccc(Br)cc34)ccc2F)CC1` [Compound 98, 6-bromo-4-(4-fluoro-3-(4-methoxypiperidine-1-carbonyl)benzyl)phthalazin-1(2H)-one], the IC50 was found to be 135 nM.

Turning to `COC1CCN(C(=O)c2cc(Cc3n[nH]c(=O)c4ccc(N)cc34)ccc2F)CC1` [Compound 99, 6-amino-4-(4-fluoro-3-(4-methoxypiperidine-1-carbonyl)benzyl)phthalazin-1(2H)-one], the IC50 came out at 11 nM.

As for `COC1CCN(C(=O)c2cc(Cc3n[nH]c(=O)c4cccc(Cl)c34)ccc2F)CC1` [Compound 104a, 5-chloro-4-(4-fluoro-3-(4-methoxypiperidine-1-carbonyl)benzyl)phthalazin-1(2H)-one], the IC50 was determined as 9 nM.

Turning to `CCOC1CCN(C(=O)c2cc(Cc3n[nH]c(=O)c4cccc(Cl)c34)ccc2F)CC1` [Compound 104b, 5-chloro-4-(3-(4-ethoxypiperidine-1-carbonyl)-4-fluorobenzyl)phthalazin-1(2H)-one], the IC50 turned out to be 7 nM.

`O=C(COC1CCN(C(=O)c2cc(Cc3n[nH]c(=O)c4ccccc34)ccc2F)CC1)N1CCCC1` [Compound 107, 4-(4-fluoro-3-(4-(2-oxo-2-(pyrrolidin-1-yl)ethoxy)piperidine-1-carbonyl)benzyl)phthalazin-1(2H)-one]: the IC50 turned out to be 9 nM.

As to `O=C(c1cc(Cc2n[nH]c(=O)c3ccccc23)ccc1F)N1CCC(OCCN2CCCC2)CC1` [Compound 110, 4-(4-fluoro-3-(4-(2-(pyrrolidin-1-yl)ethoxy)piperidine-1-carbonyl)benzyl)phthalazin-1(2H)-one], the IC50 was 22 nM.

For the molecule `O=C(COC1CCN(C(=O)c2cc(Cc3n[nH]c(=O)c4ccccc34)ccc2F)CC1)N1CCCCC1` [Compound 113, 4-(4-fluoro-3-(4-(2-oxo-2-(piperidin-1-yl)ethoxy)piperidine-1-carbonyl)benzyl)phthalazin-1 (2H)-one], the IC50 turned out to be 8 nM.

As for `O=C(c1cc(Cc2n[nH]c(=O)c3ccccc23)ccc1F)N1CCC(OCCN2CCCCC2)CC1` [Compound 116, 4-(4-fluoro-3-(4-(2-(piperidin-1-yl)ethoxy)piperidine-1-carbonyl)benzyl)phthalazin-1(2H)-one], the IC50 was found to be 46 nM.

In the case of `COC1CCN(C(=O)c2cccc(Cc3n[nH]c(=O)c4cccc(Cl)c34)c2)CC1` [Compound 119a, 5-chloro-4-(3-(4-methoxypiperidine-1-carbonyl)benzyl)phthalazin-1(2H)-one], the IC50 was found to be 21 nM.

As for `CCOC1CCN(C(=O)c2cccc(Cc3n[nH]c(=O)c4cccc(Cl)c34)c2)CC1` [Compound 119b, 5-chloro-4-(3-(4-ethoxypiperidine-1-carbonyl)benzyl)phthalazin-1(2H)-one], the IC50 stood at 13 nM.

Turning to `COc1cccc2c(=O)[nH]nc(Cc3ccc(F)c(C(=O)N4CCC(OC)CC4)c3)c12` [Compound 126a, 4-(4-fluoro-3-(4-methoxypiperidine-1-carbonyl)benzyl)-5-methoxyphthalazin-1(2H)-one], the IC50 is 6 nM.

On to `CCOC1CCN(C(=O)c2cc(Cc3n[nH]c(=O)c4cccc(OC)c34)ccc2F)CC1` [Compound 126b, 4-(3-(4-ethoxypiperidine-1-carbonyl)-4-fluorobenzyl)-5-methoxyphthalazin-1(2H)-one], for which the IC50 is 6 nM.

As to `CCOC1CCN(C(=O)c2cc(F)cc(Cc3n[nH]c(=O)c4cccc(Cl)c34)c2)CC1` [Compound 129a, 5-chloro-4-(3-(4-ethoxypiperidine-1-carbonyl)-5-fluorobenzyl)phthalazin-1(2H)-one], the IC50 worked out at 4 nM.

Take `COC1CCN(C(=O)c2cc(F)cc(Cc3n[nH]c(=O)c4cccc(Cl)c34)c2)CC1` [Compound 129b, 5-chloro-4-(3-fluoro-5-(4-methoxypiperidine-1-carbonyl)benzyl)phthalazin-1(2H)-one]: the IC50 amounted to 23 nM.
